# Target: T1, Aromatase (Homo sapiens, UniProt P11511)
# T1 sequence (P11511 whole entry): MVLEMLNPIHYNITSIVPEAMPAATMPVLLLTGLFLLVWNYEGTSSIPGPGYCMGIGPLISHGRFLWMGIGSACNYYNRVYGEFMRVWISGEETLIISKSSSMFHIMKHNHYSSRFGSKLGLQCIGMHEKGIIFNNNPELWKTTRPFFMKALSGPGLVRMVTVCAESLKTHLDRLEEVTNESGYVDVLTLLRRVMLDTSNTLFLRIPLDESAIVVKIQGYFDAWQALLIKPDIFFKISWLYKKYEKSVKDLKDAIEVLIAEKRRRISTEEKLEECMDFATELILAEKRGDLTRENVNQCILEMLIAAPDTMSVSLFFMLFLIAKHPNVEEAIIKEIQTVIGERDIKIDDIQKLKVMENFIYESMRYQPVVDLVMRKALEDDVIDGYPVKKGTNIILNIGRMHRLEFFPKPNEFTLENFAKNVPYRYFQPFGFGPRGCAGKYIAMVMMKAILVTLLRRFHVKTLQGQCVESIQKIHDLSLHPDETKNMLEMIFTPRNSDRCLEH
# Assay: not given
row,Structure (SMILES),IC50
1,N#Cc1ccccc1Cn1ccnc1,47.9 nM
2,O=[N+]([O-])c1ccc(Cn2ccnc2)cc1,28.2 nM
3,N#Cc1ccc(C2(n3ccnc3)CCCC2)cc1,37.2 nM
4,N#Cc1ccc(C(c2ccc(C#N)cc2)n2ncnn2)cc1,5.75 nM
5,N#Cc1ccc(C(c2ccc(C#N)cc2)n2ccnn2)cc1,57.5 nM
6,CC(C)(C#N)c1cc(Cn2cncn2)cc(C(C)(C)C#N)c1 [ANASTROZOLE],15.1 nM
7,Clc1cccc(C(c2ccc3[nH]cnc3c2)n2ccnc2)c1 (stereo unspecified) [LIAROZOLE],44.7 nM
8,N#Cc1ccc(C(c2ccc(C#N)cc2)c2cncnc2)cc1,288 nM
9,O=c1c([C@@H](c2ccc(Br)cc2)n2ccnc2)coc2ccccc12,49 nM
10,N#Cc1ccc([C@@H](c2coc3ccccc3c2=O)n2ccnc2)cc1,630 nM
11,CCC(c1ccc(C#N)cc1)(c1ccc(C#N)cc1)n1cncn1,93.3 nM
12,N#Cc1ccc(C(F)(c2ccc(C#N)cc2)n2ccnn2)cc1,95.5 nM
13,N#Cc1cccc(Cn2ccnc2)c1,3720 nM
14,N#Cc1ccc([C@H](c2coc3ccccc3c2=O)n2ccnc2)cc1,110 nM
15,N#Cc1ccc(C(F)(c2ccc(C#N)cc2)n2ncnn2)cc1,148 nM
16,Cc1oc2c(C#N)ccc(Cn3ccnc3)c2c1C,18.2 nM
17,O=c1ccoc2cc(Cn3cncn3)ccc12,3720 nM
18,O=c1c([C@H](c2ccc(Br)cc2)n2ccnc2)coc2ccccc12,290 nM
19,Brc1ccc(Cn2ccnc2)cc1,339 nM
20,O=c1c([C@@H](c2ccc([N+](=O)[O-])cc2)n2ccnc2)coc2ccccc12,2.3 nM
21,CC(C)(c1ccc(C#N)cc1)n1ccnc1,95.5 nM
22,O=C(c1ccccc1)c1ccc(Cn2ccnc2)cc1,47.9 nM
23,N#Cc1ccc(C(c2ccc(C#N)cc2)c2cccnc2)cc1,58.9 nM
24,N#Cc1ccc(C(F)(c2ccc(C#N)cc2)n2cncn2)cc1,61.7 nM
25,N#Cc1ccc(Cn2ccnc2)cc1,1100 nM
26,N#Cc1ccc(Cn2ccnc2)c2ccccc12,11 nM
27,O=c1c([C@H](c2ccc([N+](=O)[O-])cc2)n2ccnc2)coc2ccccc12,96 nM
28,N#Cc1ccc(C(F)(c2ccc(C#N)cc2)n2ccnc2)cc1,871 nM
29,CC(c1ccc(C#N)cc1)(c1ccc(C#N)cc1)n1cncn1,43.7 nM
30,N#Cc1ccc(C(=C2CCCCC2)n2cncn2)cc1,95.5 nM

# Target: T2, CYP17 (steroid 17-alpha-hydroxylase/17,20 lyase) (Homo sapiens, UniProt P05093)
# T2 sequence (P05093 whole entry): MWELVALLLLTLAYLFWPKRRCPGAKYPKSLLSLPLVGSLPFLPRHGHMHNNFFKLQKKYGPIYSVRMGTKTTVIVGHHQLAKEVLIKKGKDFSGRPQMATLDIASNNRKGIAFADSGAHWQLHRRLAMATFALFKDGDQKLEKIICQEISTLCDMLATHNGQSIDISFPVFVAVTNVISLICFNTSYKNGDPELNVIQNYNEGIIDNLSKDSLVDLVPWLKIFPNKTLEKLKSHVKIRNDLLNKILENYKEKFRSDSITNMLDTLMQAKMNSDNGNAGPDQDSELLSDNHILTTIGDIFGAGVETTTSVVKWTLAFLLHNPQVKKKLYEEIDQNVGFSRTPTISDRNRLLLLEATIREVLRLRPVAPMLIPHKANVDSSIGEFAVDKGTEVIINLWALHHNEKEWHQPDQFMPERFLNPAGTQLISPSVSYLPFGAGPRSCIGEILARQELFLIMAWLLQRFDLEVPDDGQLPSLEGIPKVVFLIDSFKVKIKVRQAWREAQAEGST
# Assay: in vitro
row,Structure (SMILES),inhibition at 2.5 µM
1,N#Cc1ccc([C@@H]2CCCc3cncn32)cc1 [S-FADROZOLE],7%

# Reference: ChEMBL document CHEMBL1139479, “Enantioselective nonsteroidal aromatase inhibitors identified through a multidisciplinary medicinal chemistry approach” (J Med Chem, 2005)
